The full ranking holds about 33,000 sequences; the median of “E-score (-0.5 to 0.5)” is about -0.056, and the highest 2% start at about 0.38. The list shows a part of the results.
What follows are sequences tested against Stb4 (UniProt P50104) (assay: PBM E-score (8-mer binding enrichment) (E-score (-0.5 to 0.5)); higher = stronger / more preferred TF binding; most listed sequences are background and not binding sites). Conditions: protein concentration: 200 nM; construct: GST-DNA-binding domain.
In short: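 GST-tagged yeast TFs (full-length or DNA-binding domain) were made by PURExpress in vitro transcription/translation and applied at about 100-200 nM to universal all-10-mer Agilent arrays. The arrays were made double-stranded by primer extension, on fresh or once-stripped slides. Bound protein was detected with fluorescent anti-GST, and scans were normalised with masliner. Each ungapped eight-base word, pooled with its reverse complement, received an E-score (modified Wilcoxon-Mann-Whitney statistic) from the Universal PBM Analysis Suite.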

First: GGTCCATA
Second: ATCCTGGA
The “PBM E-score” value of the first is lower: -0.146 for the first, -0.138 for the second.

Going from ATGATTTC to GTGAAACA, the “PBM E-score” value falls from 0.0687 to -0.119.

Going from CCCCCAGG to GCGCTACA, the “PBM E-score” value falls from -0.166 to -0.19.

Compared with AATGGCGT, AAATTCCC is higher in “PBM E-score” value: -0.0969 for the first, 0.167 for the second.

First: AAATGTCC
Second: GGGGGATA
The “PBM E-score” value of the first is lower: 0.0336 for the first, 0.0572 for the second.

First: AAGGCACG
Second: AAGTAAGA
The “PBM E-score” value of the first is higher: -0.0273 for the first, -0.347 for the second.

Going from GACAGGAC to ACTCATCG, the “PBM E-score” value rises from -0.173 to -0.0688.

Going from GGCCAGGA to CGTGTCCC, the “PBM E-score” value rises from -0.206 to 0.0996.

Going from GCTAACGA to CATAAATG, the “PBM E-score” value falls from 0.0283 to -0.181.

First: AACTTACA
Second: CATCTTTC
The “PBM E-score” value of the first is lower: -0.291 for the first, -0.0854 for the second.

Compared with ACACCCAT, CCAGAGCG is lower in “PBM E-score” value: -0.0982 for the first, -0.229 for the second.

Compared with ACGTCTAC, AAATCCCC is higher in “PBM E-score” value: -0.212 for the first, 0.0768 for the second.

Compared with AGCCTGAA, ATGCTCGC is lower in “PBM E-score” value: -0.115 for the first, -0.239 for the second.

First: CTAACTAA
Second: AACTTGGC
The “PBM E-score” value of the first is higher: -0.063 for the first, -0.109 for the second.

Going from GTGGGCAA to AAGTCGCC, the “PBM E-score” value rises from -0.0788 to 0.019.

Compared with CAGGCAAA, CCTGGACC is lower in “PBM E-score” value: -0.0379 for the first, -0.229 for the second.

Going from ACCCCACG to ATCGGAAC, the “PBM E-score” value rises from 0.0622 to 0.428.

Going from GCGCTAAC to ACACACTC, the “PBM E-score” value rises from -0.112 to -0.0812.

Going from AACGCCTA to CATGAATA, the “PBM E-score” value falls from -0.0403 to -0.291.

Going from AAGTGTGG to ATCACACA, the “PBM E-score” value falls from 0.0214 to -0.149.

Compared with CATCGACA, ACCCCGAG is higher in “PBM E-score” value: 0.0237 for the first, 0.333 for the second.

Compared with CGGGAACG, AGTCCTCG is lower in “PBM E-score” value: 0.339 for the first, -0.0946 for the second.

First: AGGCCTGC
Second: GGAGCGGA
The “PBM E-score” value of the first is lower: -0.143 for the first, 0.26 for the second.

Compared with ACCATTGG, ACTCCCTC is higher in “PBM E-score” value: -0.229 for the first, -0.217 for the second.

First: ACTGACGG
Second: GACGCATA
The “PBM E-score” value of the first is higher: 0.11 for the first, -0.0663 for the second.

First: GACGTACA
Second: GTTTCAGA
The “PBM E-score” value of the first is higher: -0.0727 for the first, -0.1 for the second.

First: AGCGAGCC
Second: AGAGAGTC
The “PBM E-score” value of the first is higher: 0.168 for the first, -0.253 for the second.

Compared with ACCCAAGA, CCGTCGGC is higher in “PBM E-score” value: -0.0958 for the first, 0.329 for the second.

Going from TGATCAAA to ATAGTAAA, the “PBM E-score” value rises from -0.237 to -0.0702.

First: CAACCCGG
Second: GAAATAGC
The “PBM E-score” value of the first is higher: 0.187 for the first, 0.0755 for the second.

Going from CCAGTCAC to CTGCGGCA, the “PBM E-score” value rises from -0.0768 to -0.024.

Compared with CGTTACCC, AACCGCCA is lower in “PBM E-score” value: 0.081 for the first, -0.0477 for the second.

First: ATGCTAAC
Second: ACTCCGAC
The “PBM E-score” value of the first is lower: 0.0078 for the first, 0.32 for the second.

First: AGACCGCT
Second: CCACCTAA
The “PBM E-score” value of the first is lower: -0.157 for the first, -0.125 for the second.

Compared with CTCAGAAG, CATAACAA is higher in “PBM E-score” value: -0.183 for the first, -0.0176 for the second.

First: ACGGGTGG
Second: AAAATTGC
The “PBM E-score” value of the first is higher: 0.173 for the first, 0.0311 for the second.

First: ATGGTTCC
Second: CAATGGTG
The “PBM E-score” value of the first is higher: 0.23 for the first, -0.219 for the second.

Going from CAACTTGC to GTGGGAGA, the “PBM E-score” value rises from -0.192 to -0.188.

First: CGACCGAG
Second: CATCGAGA
The “PBM E-score” value of the first is higher: 0.273 for the first, -0.158 for the second.

Going from AAAATGTC to CGCGCACA, the “PBM E-score” value falls from 0.0616 to 0.0417.

Compared with AGCTCTGG, CACACGTC is higher in “PBM E-score” value: -0.19 for the first, -0.116 for the second.

First: AAGTCACT
Second: CAGATGTC
The “PBM E-score” value of the first is lower: -0.146 for the first, -0.0282 for the second.

Going from ACTCCCGG to AACGGAGC, the “PBM E-score” value falls from 0.372 to 0.0874.

Compared with CCCCGTAC, GGCTGCCA is higher in “PBM E-score” value: -0.155 for the first, -0.0326 for the second.

First: AGACACCG
Second: ACCCATGC
The “PBM E-score” value of the first is higher: -0.0258 for the first, -0.177 for the second.

First: TCATCAGA
Second: GGTGGTAC
The “PBM E-score” value of the first is lower: -0.209 for the first, 0.155 for the second.

Compared with AACCAACG, TATTTCGA is higher in “PBM E-score” value: -0.0946 for the first, 0.00011 for the second.

Going from CCTCCCTA to CTCAGCTC, the “PBM E-score” value rises from -0.108 to -0.0376.

Going from GATGGAGA to ATGACAGC, the “PBM E-score” value falls from 0.0275 to -0.336.

Going from GAGGAAGC to ACGGGGCC, the “PBM E-score” value rises from -0.0209 to 0.0121.

Going from CTCGATCC to CTTTAAGC, the “PBM E-score” value falls from 0.135 to 0.0905.

Compared with CTCTACCC, AAGATCTC is lower in “PBM E-score” value: -0.109 for the first, -0.249 for the second.

Going from GGGAACAC to AATACTAG, the “PBM E-score” value falls from 0.194 to -0.132.

First: CGACCAAC
Second: GTGGAAAA
The “PBM E-score” value of the first is lower: -0.0813 for the first, -0.0215 for the second.

Compared with GTGCGAAA, AGACCACG is lower in “PBM E-score” value: -0.159 for the first, -0.204 for the second.

Compared with AAACAAGA, AGGACTTC is lower in “PBM E-score” value: -0.0845 for the first, -0.164 for the second.

First: GGTGAGTA
Second: AGCAGCGC
The “PBM E-score” value of the first is lower: -0.183 for the first, -0.139 for the second.

Compared with CAAAACCC, AGTAGCAA is lower in “PBM E-score” value: 0.251 for the first, 0.00951 for the second.

Going from CCAGCGTC to CACTCATC, the “PBM E-score” value rises from -0.147 to -0.079.

Going from CGCGCCAC to AGACCCAA, the “PBM E-score” value falls from -0.18 to -0.186.

First: CGCGATCC
Second: GACAATGC
The “PBM E-score” value of the first is higher: 0.142 for the first, -0.0855 for the second.

Compared with GAGATCCA, TAGTTATA is lower in “PBM E-score” value: 0.0196 for the first, -0.0948 for the second.

First: ACACGAAA
Second: GTCAATTA
The “PBM E-score” value of the first is lower: -0.0666 for the first, -0.00661 for the second.

First: ACGGTGCG
Second: AGAGATTC
The “PBM E-score” value of the first is lower: -0.0311 for the first, -0.00647 for the second.

Compared with GGCAACAA, AGATCTGG is lower in “PBM E-score” value: -0.0697 for the first, -0.188 for the second.

Compared with AATTCCGA, GTCACTGA is lower in “PBM E-score” value: 0.46 for the first, -0.129 for the second.

Compared with CATCTTCG, ACATGCCT is lower in “PBM E-score” value: 0.0105 for the first, -0.245 for the second.

Going from TATTGTCA to ATTCTGAG, the “PBM E-score” value rises from -0.136 to -0.0695.

Going from ATTTCACA to ACCGCCGA, the “PBM E-score” value rises from -0.0887 to 0.298.

Going from CTTACAAA to GACTACCA, the “PBM E-score” value falls from -0.0816 to -0.129.

Compared with CCGGGTAA, GAGGCTGC is lower in “PBM E-score” value: 0.418 for the first, -0.0871 for the second.

Compared with CGAGCCCC, AACCGTGC is lower in “PBM E-score” value: 0.109 for the first, 0.105 for the second.

First: ACATTCTA
Second: CCAATAGA
The “PBM E-score” value of the first is higher: -0.187 for the first, -0.222 for the second.

Going from CGATACCA to GGGTATAA, the “PBM E-score” value rises from -0.0346 to 0.145.

First: CTGACTAA
Second: CGGTAGCC
The “PBM E-score” value of the first is lower: -0.137 for the first, 0.178 for the second.

First: GAAGAATC
Second: CTGTATCA
The “PBM E-score” value of the first is higher: 0.251 for the first, -0.213 for the second.

First: ATTGTTGG
Second: AGTGGGAA
The “PBM E-score” value of the first is lower: 0.00265 for the first, 0.077 for the second.

First: CACTCTGA
Second: CAGTTCGA
The “PBM E-score” value of the first is higher: -0.114 for the first, -0.262 for the second.

Going from CATCTGGA to CCGGCGTA, the “PBM E-score” value rises from 0.0219 to 0.138.

First: CCTTCGAG
Second: GATTTTTA
The “PBM E-score” value of the first is lower: -0.13 for the first, 0.097 for the second.

First: GATAGCCC
Second: AACGTGCA
The “PBM E-score” value of the first is higher: 0.0264 for the first, -0.184 for the second.

Going from AGCACTAG to GCAGATAC, the “PBM E-score” value rises from -0.1 to 0.105.

Compared with CTGATATA, GTTCATCA is lower in “PBM E-score” value: 0.0665 for the first, -0.158 for the second.

Going from ACGACTCT to CGATCACC, the “PBM E-score” value rises from -0.22 to 0.017.

Going from CTGCGAAA to AGCTGACT, the “PBM E-score” value rises from -0.152 to -0.141.

Compared with CTGTAGTA, GAACTGCC is higher in “PBM E-score” value: -0.0968 for the first, 0.148 for the second.

— the supplement of paper PMC3334620
